SMILES strings stand for the structures. Several values for one entry are separate records, joined by “and”; a condition that tells them apart may be missing. Equal values may be shown once. Where a name gives a salt, the structure may show the parent alone. Hit rate of the full screen: of about 1,800 compounds, about 50 (3%) showed activity. The list shows a part of the results.
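Further: fibroblasts sorted 14 days after bleomycin, GFP+ and GFP− mixed 1:1 in 384-well plates (GFP− as in-well control), imaged after Hoechst and NucView530 staining, reference wells lacked compound.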

The subject of this assay is mouse p16Ink4a+/- lung fibroblasts (INKBRITE, bleomycin-injured). Briefly: percentage of GFP+ (p16Ink4a+) fibroblasts among all cells in well; higher = less depletion of p16Ink4a+ cells, active = 20 or less. The following applies: 1 µM; 3 days.
For `CN[C@@H]1[C@H](O)[C@H](NC)[C@H]2O[C@@]3(O)C(=O)C[C@@H](C)O[C@H]3O[C@@H]2[C@H]1O` [Spectinomycin], the “percentage of GFP+” value is inactive: 41.2%.

For the compound `c1ccc2c(CC3=NCCN3)cccc2c1` [Naphazoline], the “percentage of GFP+” value was inactive: 38.4%.

For `CC#CCn1c(N2CCC[C@@H](N)C2)nc2c1c(=O)n(Cc1nc(C)c3ccccc3n1)c(=O)n2C` [Linagliptin], the “percentage of GFP+” value was inactive: 43.6%.

As for `N[C@H]1C[C@@H]1c1ccc(-c2cccc(O)c2)cc1`, the “percentage of GFP+” value was inactive: 44.5%.

With `Nc1ncnc2c1ncn2[C@@H]1O[C@H](CO)[C@@H](O)[C@H]1O` [Adenosine], the “percentage of GFP+” value is inactive: 39.5%.

For `O=[N+]([O-])c1ccc2c(c1)S(=O)(=O)C=C2` [Stattic], the “percentage of GFP+” value is inactive: 21.8%.

Consider `N=C(N)/N=C(\N)NCCc1ccccc1` [Phenformin], for which the “percentage of GFP+” value was inactive: 37.3%.

Take `O=C(O)c1ccc(N2C(=O)/C(=C/c3ccc(-c4ccc([N+](=O)[O-])cc4)o3)C=C2c2ccccc2)cc1`: the “percentage of GFP+” value was inactive: 49.2%.

In the case of `COC(=O)/C=C/C(=O)OC` [Dimethyl Fumarate], the “percentage of GFP+” value is inactive: 41%.

As to `COC(=O)N[C@@H](C)CNc1nccc(-c2cn(C(C)C)nc2-c2cc(Cl)cc(NS(C)(=O)=O)c2F)n1`, the “percentage of GFP+” value is inactive: 49.8%.

On to `CN(C)CC/C=C1/c2ccccc2COc2ccc(CC(=O)O)cc21` [Olopatadine], for which the “percentage of GFP+” value is inactive: 41.7%.

Consider `CN(C)c1ccc(C(=O)NCCCCCCC(=O)NO)cc1`, for which the “percentage of GFP+” value was inactive: 30.4%.

Take `CO[C@H]1C[C@@H]2CC[C@@H](C)[C@@](O)(O2)C(=O)C(=O)N2CCCC[C@H]2C(=O)O[C@H]([C@H](C)C[C@@H]2CC[C@@H](OC(=O)C(C)(CO)CO)[C@H](OC)C2)CC(=O)[C@H](C)/C=C(\C)[C@@H](O)[C@@H](OC)C(=O)[C@H](C)C[C@H](C)/C=C/C=C/C=C/1C` [Temsirolimus]: the “percentage of GFP+” value is inactive: 38.5%.

Turning to `C[C@H](CCC(=O)O)[C@H]1CC[C@H]2[C@@H]3[C@@H](O)C[C@@H]4C[C@H](O)CC[C@]4(C)[C@H]3CC[C@]12C` [Ursodeoxycholic Acid], the “percentage of GFP+” value was inactive: 47%.

With `CCOc1ccccc1N=Nc1c(C)nn(-c2nc(-c3ccccc3)cs2)c1O`, the “percentage of GFP+” value was inactive: 48.7%.

For `CC(=O)Oc1ccc(C(c2ccc(OC(C)=O)cc2)c2ccccn2)cc1` [Bisacodyl], the “percentage of GFP+” value is inactive: 42.6%.

As to `N[C@@H](Cc1cc(I)c(Oc2ccc(O)c(I)c2)c(I)c1)C(=O)O` [Liothyronine], the “percentage of GFP+” value is inactive: 49%.

For `Cc1ccc(-n2sc(=O)n(Cc3ccc(F)cc3)c2=O)cc1`, the “percentage of GFP+” value is inactive: 46.8%.

As for `O=c1cc(N2CCOCC2)oc2c1ccc1ccccc12`, the “percentage of GFP+” value was inactive: 41.8%.

Consider `O=C(/C=C/C=C/c1ccc2c(c1)OCO2)N1CCCCC1` [Piperine], for which the “percentage of GFP+” value was inactive: 36.6%.

On to `Cc1ccc(NC(=O)c2cccc(C(C)(C)C#N)c2)cc1Nc1ccc2ncn(C)c(=O)c2c1`, for which the “percentage of GFP+” value is inactive: 30.9%.

In the case of `COc1ccc(CCN(C)CCCC(C#N)(c2ccc(OC)c(OC)c2)C(C)C)cc1OC` (configuration not stated) [Verapamil], the “percentage of GFP+” value is inactive: 52.9%.

Turning to `C=C1C(=O)[C@@]23C(CC[C@@H]1[C@H]2O)[C@@]12CO[C@]3(O)[C@@H](O)[C@@H]1C(C)(C)CC[C@@H]2O` (some centres not stated) [Oridonin], the “percentage of GFP+” value is inactive: 29.7%.

On to `CC(C)(C)c1ccc(C(=O)CCCN2CCC(OC(c3ccccc3)c3ccccc3)CC2)cc1` [Ebastine], for which the “percentage of GFP+” value was inactive: 56.5%.

Consider `Cc1cc(-c2ncc(CC(=O)Nc3ccc(-c4cnccn4)cn3)cc2C)ccn1`, for which the “percentage of GFP+” value was inactive: 40%.

As for `CC1(C)SC2C(NC(=O)[C@H](C(=O)O)c3ccsc3)C(=O)N2C1C(=O)O` (some centres not stated) [Ticarcillin sodium], the “percentage of GFP+” value is inactive: 38.1%.

Take `Cc1ccc(O)c([C@H](CCN(C(C)C)C(C)C)c2ccccc2)c1` [Tolterodine]: the “percentage of GFP+” value was inactive: 40.7%.

As to `C=CCc1ccc(O)c(-c2ccc(O)c(CC=C)c2)c1` [Honokiol], the “percentage of GFP+” value is inactive: 47.7%.

As to `C[C@]1(c2nc3c(C(N)=O)cccc3[nH]2)CCCN1` [Veliparib], the “percentage of GFP+” value was inactive: 40.6%.

Regarding `CC1(C)CC(=O)c2c(C(F)(F)F)nn(-c3ccc(C(N)=O)c(N[C@H]4CC[C@H](OC(=O)CN)CC4)c3)c2C1`, the “percentage of GFP+” value is active: 6.23%.

For `Fc1ccc(C(c2ccc(F)cc2)N2CCN(C/C=C/c3ccccc3)CC2)cc1` [Flunarizine], the “percentage of GFP+” value was inactive: 44.8%.

For the compound `COc1ccc([C@@H]2CC(=O)c3c(O)cc(O[C@@H]4O[C@H](CO[C@@H]5O[C@@H](C)[C@H](O)[C@@H](O)[C@H]5O)[C@@H](O)[C@H](O)[C@H]4O)cc3O2)cc1O` [Hesperidin], the “percentage of GFP+” value was inactive: 43.1% and inactive: 45%.

Consider `CCN1/C(=C/C(C)=O)Sc2ccc(OC)cc21`, for which the “percentage of GFP+” value was inactive: 50.3%.

Turning to `COc1cc(OC)c2c(O)nc(-c3cc(C)c(OCCO)c(C)c3)nc2c1`, the “percentage of GFP+” value is inactive: 46.3%.

With `CS(=O)(=O)c1ccc(C2=C(c3ccccc3)C(=O)OC2)cc1` [Rofecoxib], the “percentage of GFP+” value was inactive: 40.2%.

Regarding `O=C(/C=C\n1cnc(-c2cc(C(F)(F)F)cc(C(F)(F)F)c2)n1)N1CC(F)(F)C1`, the “percentage of GFP+” value is inactive: 24.1%.

In the case of `CCCCNc1ncc(-c2ccc(CN3CCOCC3)cn2)c(N[C@H]2CC[C@H](O)CC2)n1`, the “percentage of GFP+” value was inactive: 48.8%.

In the case of `CNC[C@H](O)c1ccc(O)c(O)c1` [Epinephrine], the “percentage of GFP+” value is inactive: 43.2% and inactive: 43.6% and inactive: 39%.

`C=C(C)[C@@H]1CC[C@]2(C(=O)O)CC[C@]3(C)[C@H](CC[C@@H]4[C@@]5(C)CC[C@H](O)C(C)(C)[C@@H]5CC[C@]43C)[C@@H]12` [Betulinic acid]: the “percentage of GFP+” value was inactive: 49.8%.

Turning to `CN1[C@@H]2CC[C@H]1C[C@@H](OC(c1ccccc1)c1ccccc1)C2` [Benzatropine], the “percentage of GFP+” value was inactive: 51.1%.

With `CC(S)C(=O)NCC(=O)O` (configuration not stated) [Tiopronin], the “percentage of GFP+” value is inactive: 42.1%.

For the compound `CCc1c(Cl)c(O)c(Cl)c(O)c1C(=O)O[C@H]1[C@H](O)[C@H](OC)[C@H](OC/C2=C\C=C\C[C@H](O)/C(C)=C\[C@H](CC)[C@@H](O[C@@H]3OC(C)(C)[C@@H](OC(=O)C(C)C)[C@H](O)[C@@H]3O)/C(C)=C\C(C)=C/C[C@@H]([C@@H](C)O)OC2=O)O[C@@H]1C` [Fidaxomicin], the “percentage of GFP+” value was inactive: 50.9%.

For the origin of these results see the supplement of paper PMC11060735.
